Experimental data reported in patent US20210214410A1 (Stanford University, published 2021).

What was measured:
[1] = molecular target: T1, human interleukin 13 receptor alpha 2 (IL-13Rα2), biotinylated (human, UniProt Q14627 27-343, limits assumed, biotinylated (site not stated)); assay: SPR (Biacore T100), biotinylated receptor on SA chip, 1:1 kinetic fit
T1 construct: The methods give construct limits only for IL-13Rα1 and IL-4Rα1; For IL-13Rα2 they say only that the biotinylated receptor was captured on the SA chip; also called IL13RA2; CD213a2
T1 sequence (looked up): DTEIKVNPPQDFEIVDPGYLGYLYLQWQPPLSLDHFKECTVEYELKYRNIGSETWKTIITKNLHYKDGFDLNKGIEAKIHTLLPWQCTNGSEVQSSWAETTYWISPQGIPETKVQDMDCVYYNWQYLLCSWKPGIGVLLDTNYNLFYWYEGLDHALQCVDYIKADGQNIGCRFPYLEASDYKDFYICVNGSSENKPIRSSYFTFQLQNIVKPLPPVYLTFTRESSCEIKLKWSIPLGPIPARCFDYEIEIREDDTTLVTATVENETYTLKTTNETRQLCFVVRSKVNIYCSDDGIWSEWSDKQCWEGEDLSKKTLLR
Experimental: (§1) Surface Plasmon Resonance. SPR experiments were conducted on a Biacore T100 instrument. Experiments used a Biacore SA sensor chip (GE Healthcare). Biotinylated IL-13Rα1 and IL-13Rα2 receptors were captured at a low density (100-200 RU) and kinetic runs were conducted at 40 μL/min. An unrelated biotinylated protein was immobilized as a reference surface for the SA sensor chip with matching RU to the experimental surface. All data was analyzed using the Biacore T100 evaluation software version 2.0 with a 1:1 Langmuir binding model. Serial dilutions of unbiotinylated IL-13 variants in the running buffer [1×HBS-P (GE Healthcare)+0.5% BSA] were flowed over the chip and IL-13Rα1/IL-13Rα2 were regenerated by using one 60 second injections of 7 mM glycine (pH 3.0).

[2] = molecular target: T1, human interleukin 13 receptor alpha 2 …; assay: SPR, kinetic fit
Experimental: as §1

B1: wild-type human IL-13 (ligand)
chain: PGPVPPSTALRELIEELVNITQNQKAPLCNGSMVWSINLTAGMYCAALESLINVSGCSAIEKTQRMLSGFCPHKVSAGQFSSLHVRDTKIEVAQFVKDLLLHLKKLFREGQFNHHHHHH
notes: also called IL-13 wildtype; IL-13 wt
[1]
  Kd: 1 pM
  koff: 8.4e-05 s⁻¹
  kon: 5e+07 M⁻¹ s⁻¹
[2]
  Kd: 1 pM
  koff: 8.4e-05 s⁻¹
  kon: 5e+07 M⁻¹ s⁻¹
